# Reference: the BET-seq Pho4 binding data (Le et al. 2018)
# The list shows a part of the results. Values were computed here from the reads of four pooled replicates and scatter widely.
# Molecular target: T1, Pho4 (S. cerevisiae) (UniProt P07270)
# T1 sequence: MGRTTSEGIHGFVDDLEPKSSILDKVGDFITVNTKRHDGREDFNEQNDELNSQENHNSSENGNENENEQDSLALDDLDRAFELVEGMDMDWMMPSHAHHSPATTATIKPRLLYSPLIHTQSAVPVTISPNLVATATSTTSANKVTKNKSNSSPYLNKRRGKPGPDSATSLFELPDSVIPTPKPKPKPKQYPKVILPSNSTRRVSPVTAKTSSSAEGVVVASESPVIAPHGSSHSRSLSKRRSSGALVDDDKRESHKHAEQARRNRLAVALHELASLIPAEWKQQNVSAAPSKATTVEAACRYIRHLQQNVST
# Assay: relative binding free energy (BET-seq); higher = weaker binding
# Conditions: reference: library average
row,Sequence,relative binding free energy
1,AGTTGCACGTGGTGTT,-0.1 kcal/mol
2,CTGAGCACGTGGTGTA,-0.2 kcal/mol
3,GGTCTCACGTGGATAT,0.22 kcal/mol
4,AGCTTCACGTGTTGTT,0.23 kcal/mol
5,ATGTACACGTGTCAGG,-0.08 kcal/mol
6,GAGTTCACGTGGGGAC,0.29 kcal/mol
7,GATAACACGTGCTTGT,0.13 kcal/mol
8,GTAGGCACGTGATGTT,0.02 kcal/mol
9,TGGACCACGTGGTTTT,-0.08 kcal/mol
10,AGGGACACGTGTTAGT,0.05 kcal/mol
11,GTTTACACGTGGGAAT,0.16 kcal/mol
12,ATTTGCACGTGTATGG,0.09 kcal/mol
13,AAGGTCACGTGATATT,0.18 kcal/mol
14,CTATACACGTGTATGG,0.08 kcal/mol
15,GGTAGCACGTGCGTAG,-0.1 kcal/mol
16,GATTTCACGTGGGAGG,0.25 kcal/mol
17,CGGTACACGTGCATGG,0.05 kcal/mol
18,TAAGTCACGTGTTTAT,0.01 kcal/mol
19,ATGTTCACGTGGAAAT,0.25 kcal/mol
20,TACTTCACGTGGTTGG,0.18 kcal/mol
21,GGTTTCACGTGCTGTT,0.34 kcal/mol
22,AGTGACACGTGCTTGG,-0.11 kcal/mol
23,GGCTGCACGTGTATTT,0.18 kcal/mol

row,Sequence,relative binding free energy
1,GTTGACACGTGGAGCG,0.24 kcal/mol
2,GAGGTCACGTGGGGAG,0.09 kcal/mol
3,CGTGGCACGTGGAGGT,0.01 kcal/mol
4,GGGATCACGTGTTAAG,0.12 kcal/mol
5,TTCTACACGTGGTGTG,-0.08 kcal/mol
6,CTGGTCACGTGATGGT,0.2 kcal/mol
7,TTGGGCACGTGAGCGG,0.06 kcal/mol
8,ATGTTCACGTGGTAGA,0.13 kcal/mol
9,CTCGTCACGTGTGGTG,0.14 kcal/mol
10,GTTGCCACGTGTATGT,0 kcal/mol
11,TGACGCACGTGGGTCT,-0.25 kcal/mol
12,TGGTACACGTGTGCTG,0.14 kcal/mol
13,GGAAGCACGTGAGATG,0.09 kcal/mol
14,AGAGTCACGTGGTGTC,0.09 kcal/mol
15,GATTTCACGTGAGTCG,0.49 kcal/mol
16,TATGTCACGTGGATGG,0.2 kcal/mol
17,AAATTCACGTGGTAAG,0.24 kcal/mol
18,ATGGTCACGTGGGACG,0.09 kcal/mol
19,TCTTTCACGTGTTAAA,0.3 kcal/mol
20,GTTTACACGTGTTCTG,0.14 kcal/mol
21,GTCGGCACGTGGGGAA,-0.08 kcal/mol
22,ATTGGCACGTGATTGT,-0.08 kcal/mol
23,TGTTGCACGTGCTGTA,-0.08 kcal/mol

row,Sequence,relative binding free energy
1,GTAGTCACGTGGCAGG,0.05 kcal/mol
2,AGTTGCACGTGTGGTG,0.07 kcal/mol
3,CTTTACACGTGGGTGA,-0.04 kcal/mol
4,GGGTGCACGTGACGGA,0.16 kcal/mol
5,ATTTGCACGTGTAGTT,0.11 kcal/mol
6,AGGGACACGTGCGGTT,0 kcal/mol
7,TAGCGCACGTGAGTTG,0.04 kcal/mol
8,CTTTACACGTGTGTAT,0.06 kcal/mol
9,AGGTGCACGTGGTAGA,-0.11 kcal/mol
10,GTGTACACGTGAGAGG,0.34 kcal/mol
11,TAAGGCACGTGAGTTA,0.11 kcal/mol
12,TAAGGCACGTGTGTGT,-0.12 kcal/mol
13,GCGGGCACGTGAGGGA,0.12 kcal/mol
14,GAGTTCACGTGGTATC,0.39 kcal/mol
15,TTTTTCACGTGAGTGG,0.33 kcal/mol
16,ATGTGCACGTGGTCGT,-0.18 kcal/mol
17,GCTGGCACGTGGGCTT,-0.18 kcal/mol
18,TTTGACACGTGACGGA,0.08 kcal/mol
19,TTGGGCACGTGTAAAA,0.05 kcal/mol
20,CAATTCACGTGGTTAT,0.32 kcal/mol
21,TGGGACACGTGTTGGT,0.01 kcal/mol
22,TTTCGCACGTGTTCGG,-0.07 kcal/mol
23,GGGTTCACGTGATGCA,0.34 kcal/mol

row,Sequence,relative binding free energy
1,TTCGTCACGTGGTCTG,-0.03 kcal/mol
2,TGGATCACGTGGAGGT,0.25 kcal/mol
3,GAAAGCACGTGCGGGG,-0.08 kcal/mol
4,TTGATCACGTGATGTG,0.34 kcal/mol
5,TCTGGCACGTGGTACG,-0.26 kcal/mol
6,ACATTCACGTGCGGTG,0.38 kcal/mol
7,TTGTACACGTGGATTT,0.21 kcal/mol
8,TCAGTCACGTGTTCGT,-0.02 kcal/mol
9,TGTTTCACGTGTTCAG,0.24 kcal/mol
10,GGTGGCACGTGTTAGG,0.05 kcal/mol
11,GTTGGCACGTGCTCGG,-0.21 kcal/mol
12,TATGGCACGTGGTTGT,-0.14 kcal/mol
13,TGAAGCACGTGAGCGG,0.11 kcal/mol
14,TAAGACACGTGTGGGC,0.14 kcal/mol
15,GGGGGCACGTGTGCAC,-0.09 kcal/mol
16,AGTGACACGTGGGTAA,-0.17 kcal/mol
17,ATGGACACGTGATAGT,0.1 kcal/mol
18,ATGGTCACGTGGGAAT,-0.01 kcal/mol
19,TTTTGCACGTGATGAT,0.14 kcal/mol
20,AAATGCACGTGGGGCG,-0.12 kcal/mol
21,GCTGGCACGTGGTGTG,-0.06 kcal/mol
22,AGGAGCACGTGGTTGT,-0.05 kcal/mol
23,ATGGGCACGTGCTTTA,-0.27 kcal/mol

row,Sequence,relative binding free energy
1,CTGTTCACGTGGTCGG,0.13 kcal/mol
2,GTGTTCACGTGCGTGA,0.19 kcal/mol
3,TAGGGCACGTGTTGAT,-0.05 kcal/mol
4,TAAGGCACGTGAGGTC,0.24 kcal/mol
5,TTATACACGTGGATAA,0.08 kcal/mol
6,ATGATCACGTGTTATG,0.05 kcal/mol
7,GTCAGCACGTGTGTTA,0.17 kcal/mol
8,TCTGGCACGTGTTTAG,-0.08 kcal/mol
9,GTAGGCACGTGAGGGC,0.15 kcal/mol
10,CTTGCCACGTGGGTAG,-0.17 kcal/mol
11,GGGTCCACGTGGTGAG,0.1 kcal/mol
12,TCAAGCACGTGGAGGG,-0.17 kcal/mol
13,AGGGACACGTGGTCAG,-0.14 kcal/mol
14,GTAATCACGTGGGAAA,0.26 kcal/mol
15,CTTTCCACGTGATTGT,0.18 kcal/mol
16,TACGACACGTGTGTGG,0.06 kcal/mol
17,GGTCACACGTGTTGAG,0.11 kcal/mol
18,TATAACACGTGGGAAG,-0.05 kcal/mol
19,GGAAGCACGTGTGGGA,-0.1 kcal/mol
20,CGGGACACGTGTCGGT,0.11 kcal/mol
21,AGCGGCACGTGCAGGA,-0.02 kcal/mol
22,TTCGTCACGTGGGGAA,0.01 kcal/mol
23,GGGCACACGTGGGACT,0.14 kcal/mol
